In ChEMBL document CHEMBL4888484, “Replenishing the malaria drug discovery pipeline: Screening and hit evaluation of the MMV Hit Generation Library 1 (HGL1) against asexual blood stage Plasmodium falciparum ,using a nano luciferase reporter read-out” (2022):
About 540 (0.36%) of roughly 150,000 compounds showed an effect of 50% or more. This is one part of the list.

tested on: Plasmodium falciparum; test: Primary screen in NF54 nanoGlo assay, in single point, at 2uM, 72h; a lower Z score goes with more inhibition; type: functional, Erythrocyte; details: timepoint 72 hour

SMILES | % Inhibition [%] | Z score
C[C@@H](C(=O)NCc1noc(C2CC2)n1)N(c1ccccc1)S(C)(=O)=O | 14 | -1.78
Cc1nc2c(c(-c3cccnc3)n1)CCC2 | -17 | 3.13
COc1ccc(C)cc1S(=O)(=O)[C@H]1CS(=O)(=O)C[C@@H]1N(C)CCc1ccncc1 | -9 | 1.16
O=C(Cc1ccc(O)c(F)c1)N1CCCO1 | -1 | 0.19
O=C(c1ccsc1)N1CCN(C(=O)c2nc3ccccc3[nH]2)CC1 | 3 | -0.43
CS(=O)(=O)[C@H]1CCN(C(=O)c2ccsc2)C1 | -11 | 1.88
COc1c[nH]c(C(=O)Nc2nc3c(s2)CCCC3)cc1=O | -11 | 2.12
O=C(NCCc1csc(N2CCCC2)n1)Nc1ccnn1Cc1cccs1 | -4 | 0.56
O=C(NCC[C@H]1CCCO1)c1cnc(-c2ccsc2)s1 | -5 | 0.6
Cc1cnn(Cc2csc(C3CCCC3)n2)c(=O)c1 | -6 | 1.07
CC(C)=CCO[C@H]1COCC[C@@H]1NC(=O)c1cc(C(C)C)no1 | 3 | -0.46
O=C(Nc1cc(F)ccc1F)c1cc2sccc2n1Cc1ccc(Cl)cc1 | -8 | 1.58
O=C(Nc1ccc2c(c1)OCO2)N1CCC[C@H]1c1ccc2c(c1)OCCO2 | 4 | -0.72
CC(C)c1cccc(N(C)C(=O)c2coc(CN)c2)c1 | -17 | 2.5
Cc1ccc(O[C@H]2CCN(C(=O)CCc3ccccc3)C2)nn1 | -7 | 1.08
COc1ccccc1-c1cc(=O)n(CC(=O)NCc2ccccc2)c2c1CCCC2 | -3 | 0.43
Cc1cccc(-c2nc3ccc(C(=O)N4CCN(c5ncccn5)CC4)cc3nc2-c2cccc(C)c2)c1 | 17 | -2.12
Cc1nc(N2CCS(=O)(=O)C[C@@H](C)C2)nc(C)c1CC(C)C | -7 | 0.86
CC(C)Oc1ncccc1C(=O)N1CC(C)(CO)C1 | -1 | 0.27
COc1ccc(/C=C/c2nc(-c3ccc(=O)[nH]c3)no2)cc1 | -8 | 1.54
Cc1nccc(NC(=O)N2CC[C@H](C3CCCC3)C2)n1 | -9 | 1.12
Cc1ccc(CN2CCN(Cc3cccc4c3OCO4)C[C@@H]2CCO)o1 | -7 | 1.38
COc1ccc(C2CCCN2C(=O)CC(Cn2cnnn2)c2ccc(Cl)cc2)c2ccccc12 (stereo not drawn) | 31 | -3.48
O=C(CNS(=O)(=O)c1cc(-c2noc(C3CCC3)n2)cs1)N1CCN(c2ccccc2)CC1 | -1 | 0.08
CCOC(=O)C(F)(F)C1(O)CCN(C(=O)[C@](C)(CC)OC)CC1 | -5 | 0.64
O=C(NCC(=O)N1CCCC1)c1cc(F)cc2[nH]nnc12 | -16 | 2.09
Cc1nnc(CN(C)CCCNC(=O)OC(C)(C)C)o1 | -7 | 0.89

SMILES | % Inhibition [%] | Z score
Cc1ncsc1C(=O)NCc1cn(-c2cccnc2)nn1 | 5 | -0.96
CN(C)[C@@H]1C[C@H]2C(=O)N[C@@H](CC3CCCCC3)C(=O)N2C1 | 7 | -1.05
CC(C)c1ccc(C(C)NC(=O)C2CC(O)CN2)cc1 (stereo not drawn) | -1 | 0.14
CC(C)c1noc(OCC(=O)NCc2ccccc2)n1 | -5 | 0.38
C[C@H](NC1CCCCC1)c1n[nH]c(=O)n1C | 2 | -0.22
COc1ccc(CCNC(=O)Cn2c(N3CCc4ccccc4C3)nc(C)cc2=O)cc1OC | 3 | -0.43
Cc1cccc(S(=O)(=O)[C@H](C#N)c2nc3ccccc3nc2N2CCN(c3ccccc3)CC2)c1 | 5 | -0.72
c1cn(CC2(c3nc(C4CCOCC4)n[nH]3)CC2)cn1 | -5 | 1.04
Cc1ccc([C@H]2C(=O)N(C3CCCCC3)CC(=O)N2CCC2=CCCCC2)cc1 | -4 | 0.55
Nc1[nH]nc(-c2ccc(Br)o2)c1-c1ccc2c(c1)OCO2 | -2 | 0.29
Cc1nc(NC(=O)CCc2nccs2)n(C)n1 | -9 | 1.26
Cc1ccc2nc(CN3CCN(c4ccc5cn[nH]c5c4)C(=O)C3)cn2c1 | -9 | 1.12
Cn1c(=O)c(C(=O)NCc2ccccc2)nc2cccnc21 | -10 | 1.54
C=CCn1c(-c2ccccc2Cl)cn2cc(C(=O)NCCO)nc2c1=O | -8 | 1.03
CC[C@H](NC(=O)CCn1cccn1)C1CC(O)C1 (stereo partly drawn) | -6 | 1.28
CC(C)=C(C)C(=O)Nc1ccc(Cl)c(C#N)c1 | -5 | 0.77
Cc1c(N[C@H]2C[C@@](C)(O)C2)nn2c(C(F)(F)F)nnc2c1C | -8 | 1.3
COc1ccc(NC(=O)CC(=O)N[C@H](CO)Cc2ccc(Cl)cc2)c(OC)c1 | -9 | 1.8
COc1cccn(CC(=O)N2Cc3ccccc3C2)c1=O | -16 | 2.03
O=C(NC1CC1)c1ccccc1NS(=O)(=O)Cc1cc(Cl)cc(Cl)c1 | -1 | 0.14
Cc1ccc(S(=O)(=O)N2CC(Cc3nncn3C3CCCC3)C2)cc1F | -11 | 2.1
Cc1nc(-c2ccc(C)c(S(=O)(=O)N3CCc4ccccc43)c2)cs1 | 3 | -0.43
COc1ccc(CCOc2nc(-c3ccc(Cl)c(Cl)c3)n(-c3cccc(NC(=O)c4ccccc4F)c3)n2)cc1 | -1 | 0.25
CC[C@](C)(NCC(=O)Nc1cccc(Br)c1)C(F)(F)F | 0 | 0.03
CC(=O)Nc1ccc(NC(=O)[C@H](C)Nc2ccc3c(c2)OCCO3)cc1 | 1 | -0.18
O=C(CN1CCN(c2cccc(Cl)c2)C1=O)NCC(F)(F)F | 24 | -2.7
CCN(CC)C(=O)N1C[C@@H](Oc2ccccc2)C[C@H]1C(=O)N1CCOCC1 | -7 | 0.88
